In the RNAGym collection of RNA variant scans (doi:10.7554/elife.90254):
Read counts are not given, so values of variants with three or more changes are uncertain.

B1: LINE1-full (parent)
chain: UACGUAGGUGGUUUUCCCCUGAUAGUGCUAAGGGGGCCUGGAAGUUUGGACUGGGCAGAGCUCAACACAGCGUGGCAAAGUGGCUGUGGCUAGACUGCCUCUCUGGAUUCCUCGUCACUCAGCAGGGCAUCUCUGAGAGAAAUGCC

Variants of: B1
Assay: self-cleavage, relative activity (ratio to wild type); higher = more cleavage; in vitro, sequencing; the parent is a self-cleaving ribozyme

| Variant | self-cleavage |
| --- | --- |
| U23C U26C U119C | 1.73 |
| U23C U26G A69U | 0.39 |
| U23C U29C A59G | 0 |
| U23C U29C A79G | 1.61 |
| U23C U29C A94G | 0 |
| U23C U29C A124G | 2.16 |
| U23C U29C U47A C98U U119C | 1.14 |
| U23C U39A A64C A79G U112A | 0.33 |
| U23C U39A A67G | 1.41 |
| U23C U39A G106A | 2.56 |
| U23C U39C A59U U62C A121U | 0.09 |
| U23C U39C C51U U143C | 1.16 |
| U23C U39C U45C U132C | 0.77 |
| U23C U39C U102A | 0.35 |
| U23C U45A U47C G54A U130C | 1.18 |
| U23C U45C A94U | 0.52 |
| U23C U45C A141G | 0.69 |
| U23C U45G A142G | 0.83 |
| U23C U46A A136U | 1.66 |
| U23C U46C U81C G126A | 1.53 |
| U23C U46G G54A U115A G126A | 0.3 |
| U23C U47C A50G U91A U100C | 0 |
| U23C U47G A64C U96C | 0 |
| U23C U62C A65G U100A U130C | 0.61 |

| Variant | self-cleavage |
| --- | --- |
| U23C U62C A77U | 0.11 |
| U23C U73A U100C | 1.41 |
| U23C U73C A124G | 2.19 |
| U23C U73C U109C | 2.3 |
| U23C U73C U134C | 2.55 |
| U23C U91C A117G | 1.23 |
| U23C U96A U100C G106A U112C A121G | 0 |
| U23C U96A U109C A129G | 0 |
| U23C U96C U104A U134A A138G | 0.08 |
| U23C U96C U134A | 0.13 |
| U23C U104C U119C G122A | 2.21 |
| U23C U112A A121C A124U | 1.56 |
| U23C U112C G114A | 2.41 |
| U23C U119C A124U A140G | 2.76 |
| U23C U134C A141G | 1.81 |
| U23G A50U G74A | 0.49 |
| U23G G34U U119C | 1.06 |
| U23G G36A A42U G97A U115A | 0.03 |
| U23G U45C A136G | 1.82 |
| A24C A42G A117G | 2.3 |
| A24C A64U G144A | 0.7 |
| A24C A69U U100A U104A A142G U143A | 0 |
| A24C G32A A43G U47A U96C A124U | 0.13 |
| A24C G40A U52A A67U U112C | 0.16 |

| Variant | self-cleavage |
| --- | --- |
| A24C U87G U100C C111U | 0 |
| A24G A30G C61G A124G | 0.29 |
| A24G A30U U132C A140G | 1.42 |
| A24G A31G A57G U62C U130C | 0 |
| A24G A31G A67G U85G | 0 |
| A24G A42G U46C G70A A77G A121G U143A | 1.08 |
| A24G A42G U112C | 1.15 |
| A24G A43G U45C U47C A50U A142G | 1.15 |
| A24G A43G U85C | 0 |
| A24G A50G U52A A117G | 0 |
| A24G A50G U109C | 0 |
| A24G A59G A92G | 0.16 |
| A24G A64G C145U C146A | 1.27 |
| A24G A64G U96C | 0.43 |
| A24G A65U U112C G127U | 0.28 |
| A24G A77U U85A | 0 |
| A24G A78C A142C | 1.94 |
| A24G A78G A94G A124G U132A | 0 |
| A24G A78G A94U U134A | 0 |
| A24G A78G U102C A141G | 1.95 |
| A24G A78G U102C U119C | 0 |
| A24G A92G A140G U143C | 0 |
| A24G A92G A141G | 0.1 |
| A24G A117G A138G | 1.02 |

| Variant | self-cleavage |
| --- | --- |
| A24G C38U A79G | 0.73 |
| A24G C51U A57G A142C | 0.51 |
| A24G C71U A77U U115C | 0.98 |
| A24G C71U U109C | 0.26 |
| A24G G27A A65G U115A | 0.06 |
| A24G G32A A69U | 0.09 |
| A24G G32A U46A A79G C128U | 1.06 |
| A24G G32C G53A A94G C111U U119A A142G | 0.3 |
| A24G G32U U39A U81A | 1.28 |
| A24G G34A A43G A77G U100C U143C | 1.67 |
| A24G G34U A64G U73G A79G U132A | 2.51 |
| A24G G35A A69G G127A U134G | 0.31 |
| A24G G35C U119C | 1.66 |
| A24G G48C U73A | 0.45 |
| A24G G54A A67G C116U U132C | 0.14 |
| A24G G58U U62C | 0.09 |
| A24G G75U A140G | 1.21 |
| A24G G82A A121U | 1.38 |
| A24G G88A U115A | 0.07 |
| A24G U26A A57U C76U G106C U109A | 0 |
| A24G U26A A117G | 2.8 |
| A24G U26C A79G A141G | 0.84 |
| A24G U26C A107G | 1.02 |
| A24G U26C C120U | 1.59 |

| Variant | self-cleavage |
| --- | --- |
| A24G U39A A65G U108A A136U | 0.1 |
| A24G U39A A69G A142G | 0.77 |
| A24G U39A U119C | 1.93 |
| A24G U39C G58U U81C G114C | 0.07 |
| A24G U39C U73A A117G | 0.42 |
| A24G U45A U47C | 0.8 |
| A24G U46C U62C A77G A107G | 0 |
| A24G U47A G126A | 1.42 |
| A24G U47C U52A U134C | 0.59 |
| A24G U52A A64U C90U U108C | 0.07 |
| A24G U52A U100C | 2.69 |
| A24G U52C A124G | 0.32 |
| A24G U62C A79U | 0.17 |
| A24G U62C G80A U115A | 0.07 |
| A24G U62C U96C U100C | 0 |
| A24G U73A C103U | 0.87 |
| A24G U73A G80A U85C U96C U143C | 0.07 |
| A24G U73A U85C U115A | 0.3 |
| A24G U81C A142G | 0.81 |
| A24G U85C A138U A142G | 0.59 |
| A24G U91A U134C | 1.41 |
| A24G U100C A117G | 1.15 |
| A24G U112A C116U | 1.36 |
| A24U A30G A78G A136G | 0.71 |

| Variant | self-cleavage |
| --- | --- |
| A24U A50G A64U U73A | 0.59 |
| A24U A50G G70A U119C | 0.15 |
| A24U A50G U115C | 1.53 |
| A24U A57G U85C | 0.12 |
| A24U A64G A67U | 0.21 |
| A24U A64U A94G U134A | 0.08 |
| A24U A65U U102A | 0.04 |
| A24U A67G C128U G139A | 0.46 |
| A24U A67U U100C | 0.38 |
| A24U A77U U85C U104C U112A | 0.26 |
| A24U C63U A78G | 0.49 |
| A24U C63U A78U A141G | 0.41 |
| A24U C76U A141G | 1.7 |
| A24U C110A U119C | 1.18 |
| A24U C131U A141G A142G | 1.26 |
| A24U G40A U52C | 1.18 |
| A24U G54U U96A U130A A140G | 0.02 |
| A24U G54U U112A | 1.12 |
| A24U G58U U81A C113U | 0.06 |
| A24U G75A C90A | 0.05 |
| A24U U26A C71U A129U U134C A136U | 0.41 |
| A24U U26C C37U A141G | 1 |
| A24U U29C C95U U119C | 0.41 |
| A24U U39A A136U | 1.31 |

| Variant | self-cleavage |
| --- | --- |
| A24U U39C G80A G126C | 2.49 |
| A24U U45C A67U U115A | 0.21 |
| A24U U45G A59G U87A | 0 |
| A24U U46C A92U | 0.67 |
| A24U U47C U62C C84U U85A A107G A124U A141G | 0.02 |
| A24U U47G U52A U62C G72U U85C | 0.14 |
| A24U U85A U112C | 0.13 |
| A24U U87C U91A U109A | 0.17 |
| A24U U102A A107G A141G | 2.72 |
| A24U U104A U143A | 1.21 |
| A24U U104C A129U | 1.73 |
| A24U U104C A138G | 1.91 |
| A24U U109A A141G | 1.59 |
| A24U U119A A121G U143C | 0.77 |
| G25A A69U U100C U112A | 0.07 |
| G25A A77C A79U U132C | 0.63 |
| G25A A77U U87C U112C A117C | 0 |
| G25A A94U U96A | 0.05 |
| G25A U26C A43U U62C A79G A141C | 0.18 |
| G25A U26C A79G | 1.64 |
| G25A U45C U47C | 0.82 |
| G25A U87A U119C U130C | 0.02 |
| G25A U100A U104C U108C A129G | 1.31 |
